Results taken from the supplement of paper PMC10320760.
This is a noisy data set.

B1: Ydj1; a variant is named by its letters at X, in order (parent)
chain: MVKETKFYDILGVPVTATDVEIKKAYRKCALKYHPDKNPSEEAAEKFKEASAAYEILSDPEKRDIYDQFGEDGLSGAGGAGGFPGGGFGFGDDIFSQFFGAGGAQRPRGPQRGKDIKHEISASLEELYKGRTAKLALNKQILCKECEGRGGKKGAVKKCTSCNGQGIKFVTRQMGPMIQRFQTECDVCHGTGDIIDPKDRCKSCNGKKVENERKILEVHVEPGMKDGQRIVFKGEADQAPDVIPGDVVFIVSERPHKSFKRDGDDLVYEAEIDLLTAIAGGEFALEHVSGDWLKVGIVPGEVIAPGMRKVIEGKGMPIPKYGGYGNLIIKFTIKFPENHFTSEENLKKLEEILPPRIVPAIPKKATVDECVLADFDPAKYNRTRASRGGANYDSDEEEQGGEGVQCXXX

Variants of: B1
Experiment: enrichment factor, frequency at 37 °C / frequency at 25 °C (thermotolerance selection) (ratio); higher = more growth at 37 °C, higher likelihood of farnesylation
Settings: with Saccharomyces cerevisiae ydj1Δ (yWS304); selective temperature 37 °C; reference temperature 25 °C
Method: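 Pooled library of all 8,000 Ydj1-CXXX C-terminal motif variants (native CASQ replaced by C + three variable residues, one codon per amino acid) expressed from a CEN plasmid in S. cerevisiae ydj1Δ (yWS304). The library was grown in SC-Ura liquid to A600 ~2 (~8 generations) at permissive 25 °C or selective 37 °C. Reads from 8 and 7 replicates were pooled and variants counted by NGS. Enrichment factor = frequency at 37 °C / frequency at 25 °C, with a +1 correction; it reports Ydj1-dependent thermotolerance, used as a read-out of farnesylation by yeast FTase.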

| Variant | enrichment factor |
| --- | --- |
| AML | 1.16 |
| GML | 1.11 |
| HML | 3.47 |
| IML | 1.43 |
| KML | 2.25 |
| LML | 1.59 |
| MML | 1.45 |
| NML | 1.78 |
| PML | 0.526 |
| QML | 1.16 |
| RML | 1.04 |
| CML | 1.18 |
| SML | 0.842 |
| TML | 0.831 |
| VML | 0.701 |
| WML | 3.19 |
| YML | 1.9 |
| DMM | 1.6 |
| EMM | 2 |
| FMM | 1.01 |
| AMM | 1.77 |
| GMM | 1.49 |
| HMM | 0.386 |
| IMM | 1.04 |

| Variant | enrichment factor |
| --- | --- |
| KMM | 1.22 |
| LMM | 1.83 |
| MMM | 2.15 |
| NMM | 1.68 |
| PMM | 1.09 |
| QMM | 1.61 |
| RMM | 0.862 |
| CMM | 0.737 |
| SMM | 1.78 |
| TMM | 0.745 |
| VMM | 0.732 |
| WMM | 2.7 |
| YMM | 1.16 |
| DMN | 1.91 |
| EMN | 1.56 |
| FMN | 2 |
| AMN | 1.8 |
| GMN | 1.81 |
| HMN | 2.27 |
| IMN | 1.92 |
| KMN | 3.43 |
| LMN | 1.58 |
| MMN | 1.97 |
| NMN | 1.55 |

| Variant | enrichment factor |
| --- | --- |
| PMN | 1.07 |
| QMN | 2.73 |
| RMN | 1.26 |
| CMN | 1.36 |
| SMN | 1.93 |
| TMN | 1.95 |
| VMN | 1.93 |
| WMN | 2.08 |
| YMN | 2.75 |
| DMP | 0.148 |
| EMP | 0.119 |
| FMP | 1.86 |
| AMP | 0.241 |
| GMP | 0.0989 |
| HMP | 1.06 |
| IMP | 0.143 |
| KMP | 0.1 |
| LMP | 0.129 |
| MMP | 0.194 |
| NMP | 0.115 |
| PMP | 0.16 |
| QMP | 0.163 |
| RMP | 0.12 |
| CMP | 1.02 |

| Variant | enrichment factor |
| --- | --- |
| SMP | 0.139 |
| TMP | 0.112 |
| VMP | 0.199 |
| WMP | 1.53 |
| YMP | 0.675 |
| DMQ | 1.64 |
| EMQ | 2.58 |
| FMQ | 1.54 |
| AMQ | 1.82 |
| GMQ | 1.62 |
| HMQ | 3.57 |
| IMQ | 1.94 |
| KMQ | 2.74 |
| LMQ | 1.7 |
| MMQ | 1.71 |
| NMQ | 2.1 |
| PMQ | 1.29 |
| QMQ | 3.4 |
| RMQ | 2.96 |
| CMQ | 2.57 |
| SMQ | 2.59 |
| TMQ | 2.8 |
| VMQ | 2.42 |
| WMQ | 3.03 |

| Variant | enrichment factor |
| --- | --- |
| YMQ | 1.78 |
| DMR | 0.148 |
| EMR | 0.633 |
| FMR | 0.14 |
| AMR | 0.746 |
| GMR | 0.213 |
| HMR | 0.198 |
| IMR | 0.629 |
| KMR | 0.301 |
| LMR | 0.456 |
| MMR | 0.221 |
| NMR | 0.301 |
| PMR | 0.263 |
| QMR | 0.69 |
| RMR | 0.176 |
| CMR | 0.768 |
| SMR | 0.195 |
| TMR | 0.558 |
| VMR | 1.77 |
| WMR | 0.141 |
| YMR | 0.165 |
| DMS | 2.66 |
| EMS | 1.79 |
| FMS | 1.16 |

| Variant | enrichment factor |
| --- | --- |
| AMS | 2.11 |
| GMS | 1.53 |
| HMS | 5.38 |
| IMS | 2.03 |
| KMS | 3.1 |
| LMS | 2.16 |
| MMS | 1.74 |
| NMS | 2.68 |
| PMS | 1.77 |
| QMS | 2.66 |
| RMS | 1.98 |
| CMS | 0.901 |
| SMS | 3.32 |
| TMS | 2.6 |
| VMS | 0.61 |
| WMS | 1.85 |
| YMS | 1.16 |
| DMT | 1.57 |
| EMT | 1.58 |
| FMT | 1.67 |
| AMT | 1.31 |
| GMT | 1.17 |
| HMT | 2.45 |
| IMT | 1.53 |

| Variant | enrichment factor |
| --- | --- |
| KMT | 4.68 |
| LMT | 2.9 |
| MMT | 2.01 |
| NMT | 2.08 |
| PMT | 1.64 |
| QMT | 2.79 |
| RMT | 2.46 |
| CMT | 0.813 |
| SMT | 1.27 |
| TMT | 2.07 |
| VMT | 1.02 |
| WMT | 2.14 |
| YMT | 4.05 |
| DMV | 1.41 |
| EMV | 1.59 |
| FMV | 2.12 |
| AMV | 2.23 |
| GMV | 0.872 |
| HMV | 2.8 |
| IMV | 2.45 |
| KMV | 2.63 |
| LMV | 1.95 |
| MMV | 1.59 |
| NMV | 1.56 |

| Variant | enrichment factor |
| --- | --- |
| PMV | 1.05 |
| QMV | 3.64 |
| RMV | 1.37 |
| CMV | 1.03 |
| SMV | 1.31 |
| TMV | 1.84 |
| VMV | 0.908 |
| WMV | 1.51 |
| YMV | 1.99 |
| DMW | 1.49 |
| EMW | 1.5 |
| FMW | 1.51 |
| AMW | 0.938 |
| GMW | 1.38 |
| HMW | 1.82 |
| IMW | 1.75 |
| KMW | 1.82 |
| LMW | 0.887 |
| MMW | 0.759 |
| NMW | 1.95 |
| PMW | 1.02 |
| QMW | 1.16 |
| RMW | 0.579 |
| CMW | 0.772 |

| Variant | enrichment factor |
| --- | --- |
| SMW | 1.06 |
| TMW | 0.684 |
| VMW | 3.09 |
| WMW | 0.923 |
| YMW | 1.62 |
| DMY | 2 |
| EMY | 1.59 |
| FMY | 2.32 |
| AMY | 1.96 |
| GMY | 1.52 |
| HMY | 2.24 |
| IMY | 3.3 |
| KMY | 1.49 |
| LMY | 3.38 |
| MMY | 1.04 |
| NMY | 2.38 |
| PMY | 0.913 |
| QMY | 2.12 |
| RMY | 1.51 |
| CMY | 1.35 |
| SMY | 2.73 |
| TMY | 1.3 |
| VMY | 1.24 |
| WMY | 1.36 |

| Variant | enrichment factor |
| --- | --- |
| YMY | 3.59 |
| DNA | 0.199 |
| ENA | 1.52 |
| FNA | 1.7 |
| ANA | 1.28 |
| GNA | 0.613 |
| HNA | 1.99 |
| INA | 1.31 |
| KNA | 1.47 |
| LNA | 1.77 |
| MNA | 1.74 |
| NNA | 1.52 |
| PNA | 1.87 |
| QNA | 1.82 |
| RNA | 1.35 |
| CNA | 1.79 |
| SNA | 1.48 |
| TNA | 1.71 |
| VNA | 1.96 |
| WNA | 1.46 |
| YNA | 2.01 |
| DNC | 0.319 |
| ENC | 1.53 |
| FNC | 0.188 |

| Variant | enrichment factor |
| --- | --- |
| GNC | 1.3 |
| ANC | 1.31 |
| HNC | 2.26 |
| INC | 0.763 |
| KNC | 1.44 |
| LNC | 0.264 |
| MNC | 0.704 |
| NNC | 1.66 |
| PNC | 1.81 |
| QNC | 1.69 |
| RNC | 1.28 |
| SNC | 1.01 |
| CNC | 0.467 |
| TNC | 0.879 |
| VNC | 1.34 |
| WNC | 0.181 |
| YNC | 1.92 |
| DND | 0.182 |
| END | 0.228 |
| FND | 0.331 |
| GND | 0.228 |
| AND | 0.538 |
| HND | 0.366 |
| IND | 1.05 |

| Variant | enrichment factor |
| --- | --- |
| KND | 0.923 |
| LND | 0.896 |
| MND | 0.209 |
| NND | 0.26 |
| PND | 0.164 |
| QND | 0.181 |
| RND | 0.932 |
| SND | 0.222 |
| CND | 0.346 |
| TND | 0.647 |
| VND | 1.12 |
| WND | 0.485 |
| YND | 1.11 |
| DNE | 0.155 |
| ENE | 0.251 |
| FNE | 0.151 |
| GNE | 0.269 |
| ANE | 0.638 |
| HNE | 0.292 |
| INE | 0.736 |
| KNE | 0.167 |
| LNE | 0.797 |
| MNE | 0.191 |
| NNE | 0.189 |

| Variant | enrichment factor |
| --- | --- |
| PNE | 0.156 |
| QNE | 0.221 |
| RNE | 0.486 |
| SNE | 0.205 |
| CNE | 0.405 |
| TNE | 0.275 |
| VNE | 1.59 |
| WNE | 1.58 |
| YNE | 0.304 |
| DNF | 0.209 |
| ENF | 1.78 |
| FNF | 1.86 |
| GNF | 0.903 |
| ANF | 1.71 |
| HNF | 2.11 |
| INF | 2.01 |
| KNF | 1.72 |
| LNF | 1.67 |
| MNF | 1.73 |
| NNF | 1.97 |
| PNF | 1.71 |
| QNF | 2.05 |
| RNF | 2.42 |
| SNF | 2.47 |

| Variant | enrichment factor |
| --- | --- |
| CNF | 0.202 |
| TNF | 1.71 |
| VNF | 1.52 |
| WNF | 0.633 |
| YNF | 1.81 |
| DNG | 0.142 |
| ENG | 0.595 |
| FNG | 1.31 |
| GNG | 0.211 |
| ANG | 1.38 |
| HNG | 1.12 |
| ING | 1.12 |
| KNG | 0.67 |
| LNG | 1.71 |
| MNG | 1.22 |
| NNG | 0.573 |
| PNG | 0.945 |
| QNG | 1.02 |
| RNG | 1.6 |
| SNG | 1.41 |
| CNG | 1.52 |
| TNG | 1.41 |
